Data from the supplement of paper PMC8728848.
The other results are listed elsewhere or left out.

What was measured:
Assay in all cases: glycan array binding signal (z-score within array); higher = stronger binding
Details in all cases: glycan notation: IUPAC condensed, linker removed; mutation: R120K
[1] = target: Neu5Ac(a2-6)GlcNAc(b1-4)GlcNAc
Outline: (§1)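 Glycan array binding is given as a within-array Z-score, which can be read as non-binding when negative. The arrays, 3228 of them, came from the Consortium for Functional Glycomics database and were retained only where the protein sequence was available. Z-scores were averaged across arrays of the same protein sequence at different concentrations or buffers and across linkers.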

[2] = target: Neu5Ac(a2-6)GlcNAc(b1-4)GlcNAc(b1-4)GlcNAc
Outline: as §1

Neu5Ac(a2-8)Neu5Ac = target: Neu5Ac(a2-8)Neu5Ac
Outline: as §1

[3] = target: Neu5Ac(a2-8)Neu5Ac(a2-3)Gal(b1-3)GalNAc(b1-4)[Neu5Ac(a2-3)]Gal(b1-4)Glc
Outline: as §1

[4] = target: Neu5Ac(a2-8)Neu5Ac(a2-3)Gal(b1-3)GalNAc(b1-4)[Neu5Ac(a2-8)Neu5Ac(a2-3)]Gal(b1-4)Glc
Outline: as §1

[5] = target: Neu5Ac(a2-8)Neu5Ac(a2-3)Gal(b1-4)Glc
Outline: as §1

[6] = target: Neu5Ac(a2-8)Neu5Ac(a2-3)Gal(b1-4)GlcNAc
Outline: as §1

[7] = target: Neu5Ac(a2-8)Neu5Ac(a2-3)[Gal(b1-3)GalNAc(b1-4)]Gal(b1-4)Glc
Outline: as §1

[8] = target: Neu5Ac(a2-8)Neu5Ac(a2-3)[GalNAc(b1-4)]Gal(b1-4)Glc
Outline: as §1

[9] = target: Neu5Ac(a2-8)Neu5Ac(a2-8)Neu5Ac
Outline: as §1

[10] = target: Neu5Ac(a2-8)Neu5Ac(a2-8)Neu5Ac(a2-3)Gal(b1-4)Glc
Outline: as §1

[11] = target: Neu5Ac(a2-8)Neu5Ac(a2-8)Neu5Ac(a2-3)[Gal(b1-3)GalNAc(b1-4)]Gal(b1-4)Glc
Outline: as §1

[12] = target: Neu5Ac(a2-8)Neu5Ac(a2-8)Neu5Ac(a2-3)[GalNAc(b1-4)]Gal(b1-4)Glc
Outline: as §1

[13] = target: Neu5Ac(a2-8)Neu5Ac(a2-8)Neu5Ac(a2-8)Neu5Ac(a2-3)[GalNAc(b1-4)]Gal(b1-4)Glc
Outline: as §1

[14] = target: Neu5Ac(a2-8)Neu5Gc(a2-3)Gal(b1-4)GlcNAc
Outline: as §1

[15] = target: Neu5Ac(b2-6)Gal(b1-4)GlcNAc
Outline: as §1

Neu5Ac(b2-6)GalNAc = target: Neu5Ac(b2-6)GalNAc
Outline: as §1

[16] = target: Neu5Ac9Ac(a2-3)Gal(b1-3)GlcNAc
Outline: as §1

[17] = target: Neu5Ac9Ac(a2-3)Gal(b1-4)GlcNAc
Outline: as §1

[18] = target: Neu5Ac9Ac(a2-6)Gal(b1-4)GlcNAc
Outline: as §1

[19] = target: Neu5Gc(a2-3)Gal(b1-3)GlcNAc
Outline: as §1

[20] = target: Neu5Gc(a2-3)Gal(b1-3)[Fuc(a1-4)]GlcNAc
Outline: as §1

Neu5Gc(a2-3)Gal(b1-4)Glc = target: Neu5Gc(a2-3)Gal(b1-4)Glc
Outline: as §1

[21] = target: Neu5Gc(a2-3)Gal(b1-4)GlcNAc
Outline: as §1

[22] = target: Neu5Gc(a2-3)Gal(b1-4)GlcNAc(b1-3)Gal(b1-4)GlcNAc(b1-2)Man(a1-3)[Neu5Gc(a2-3)Gal(b1-4)GlcNAc(b1-3)Gal(b1-4)GlcNAc(b1-2)Man(a1-6)]Man(b1-4)GlcNAc(b1-4)GlcNAc
Outline: as §1

[23] = target: Neu5Gc(a2-3)Gal(b1-4)[Fuc(a1-3)]GlcNAc
Outline: as §1

[24] = target: Neu5Gc(a2-6)Gal(b1-4)GlcNAc
Outline: as §1

Neu5Gc(a2-6)GalNAc = target: Neu5Gc(a2-6)GalNAc
Outline: as §1

[25] = target: Neu5Gc(a2-8)Neu5Ac(a2-3)Gal(b1-4)GlcNAc
Outline: as §1

[26] = target: Neu5Gc(a2-8)Neu5Gc(a2-3)Gal(b1-4)GlcNAc
Outline: as §1

[27] = target: Neu5Gc(a2-8)Neu5Gc(a2-3)Gal(b1-4)GlcNAc(b1-3)Gal(b1-4)GlcNAc
Outline: as §1

[28] = target: Neu5Gc(a2-8)Neu5Gc(a2-6)Gal(b1-4)GlcNAc
Outline: as §1

[29] = target: Neu5Gc(b2-6)Gal(b1-4)GlcNAc
Outline: as §1

B1: Siglec-9 (Homo sapiens), Q9Y336 (protein)
chain: MLLLLLPLLWGRERAEGQTSKLLTMQSSVTVQEGLCVHVPCSFSYPSHGWIYPGPVVHGYWFREGANTDQDAPVATNNPARAVWEETRDRFHLLGDPHTKNCTLSIRDARRSDAGRYFFKMEKGSIKWNYKHHRLSVNVTALTHRPNILIPGTLESGCPQNLTCSVPWACEQGTPPMISWIGTSVSPLDPSTTRSSVLTLIPQPQDHGTSLTCQVTFPGASVTTNKTVHLNVSYPPQNLTMTVFQGDGTVSTVLGNGSSLSLPEGQSLRLVCAVDAVDSNPPARLSLSWRGLTLCPSQPSNPGVLELPWVHLRDAAEFTCRAQNPLGSQQVYLNVSLQSKATSGVTQGVVGGAGATALVFLSFCVIFVVVRSCRKKSARPAAGVGDTGIEDANAVRGSASQGPLTEPWAEDSPPDQPPPASARSSVGEGELQYASLSFQMVKPWDSRGQEATDTEYSEIKIHR
glycan array binding signal (z-score) [1]: -0.275
glycan array binding signal (z-score) [2]: -0.589
glycan array binding signal (z-score) (Neu5Ac(a2-8)Neu5Ac): -0.153
glycan array binding signal (z-score) [3]: -0.078
glycan array binding signal (z-score) [4]: -0.105
glycan array binding signal (z-score) [5]: -0.004
glycan array binding signal (z-score) [6]: -0.526
glycan array binding signal (z-score) [7]: -0.203
glycan array binding signal (z-score) [8]: 0.082
glycan array binding signal (z-score) [9]: 0.026
glycan array binding signal (z-score) [10]: 0.028
glycan array binding signal (z-score) [11]: 0.362
glycan array binding signal (z-score) [12]: -0.338
glycan array binding signal (z-score) [13]: -0.075
glycan array binding signal (z-score) [14]: -0.502
glycan array binding signal (z-score) [15]: -0.52
glycan array binding signal (z-score) (Neu5Ac(b2-6)GalNAc): -0.581
glycan array binding signal (z-score) [16]: -0.113
glycan array binding signal (z-score) [17]: -0.171
glycan array binding signal (z-score) [18]: -0.302
glycan array binding signal (z-score) [19]: -0.382
glycan array binding signal (z-score) [20]: -0.221
glycan array binding signal (z-score) (Neu5Gc(a2-3)Gal(b1-4)Glc): 0.033
glycan array binding signal (z-score) [21]: 0.036
glycan array binding signal (z-score) [22]: -0.323
glycan array binding signal (z-score) [23]: -0.459
glycan array binding signal (z-score) [24]: -0.242
glycan array binding signal (z-score) (Neu5Gc(a2-6)GalNAc): -0.34
glycan array binding signal (z-score) [25]: -0.463
glycan array binding signal (z-score) [26]: -0.607
glycan array binding signal (z-score) [27]: -0.414
glycan array binding signal (z-score) [28]: -0.909
glycan array binding signal (z-score) [29]: -0.2
